Reference: the supplement of paper PMC12217912
The other results are listed elsewhere or left out. Sequences were assembled here from the parent chain. Values near 0.05 are background.

B1: TEV protease; numbered along this chain (parent)
chain: MGESLFKGPRDYNPISSSICHLTNESDGHTTSLYGIGFGPFIITNKHLFRRNNGTLVVQSLHGVFKVKDTTTLQQHLVDGRDMIIIRMPKDFPPFPQKLKFREPQREERICLVTTNFQTKSMSSMVSDTSCTFPSGDGIFWKHWIQTKDGQCGSPLVSTRDGFIVGIHSASNFTNTNNYFTSVPKNFMELLTNQEAQQWVSGWRLNADSVLWGGHKVFMVKPEEPFQPVKEATQL

Variants of: B1
Experiment: raw area under fraction-flipped curve 0-4 h after induction (AUC4h, not background-subtracted), DNA-recorder readout of cleavage of the substrate (dimensionless); higher = more cleavage of the substrate by the protease variant
Conditions: temperature: 34 °C; time window: 0-4 h after rhamnose induction
Protocol: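 In vivo DNA recorder in E. coli TOP10(DE3) ΔrhaA at 34 °C. Each TEVp single-site mutant (parent TEVp 0) is paired with a single-site variant of the 7-mer TEVs (canonical ENLYFQ|S). The substrate sits between flexible linkers in a Bxb1-sfGFP-TEVs-SsrA fusion, so cleavage stabilises Bxb1 and speeds flipping of a recombination array, read by NGS. The value is the raw area under the fraction-flipped curve over 0-4 h after rhamnose induction (AUC4h), with ≥20 reads per time point. It is not background-subtracted; inactive controls average about 0.047.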
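Note: Bxb1 expression induced with 0.2% (w/v) L-rhamnose at OD600 near 0.5, cultures sampled hourly, flipped fraction per protease–substrate barcode pair counted by paired-end Illumina sequencing.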

Variant	area with substrate ENLAFQS	area with substrate ENLCFQS	area with substrate ENLDFQS	area with substrate ENLFFQS	area with substrate ENLIFQS	area with substrate ENLKFQS	area with substrate ENLNFQS	area with substrate ENLPFQS	area with substrate ENLQFQS	area with substrate ENLRFQS	area with substrate ENLSFQS	area with substrate ENLGFQS	area with substrate ENLHFQS	area with substrate ENLLFQS	area with substrate ENLTFQS	area with substrate ENLEFQS	area with substrate ENLMFQS	area with substrate ENLVFQS	area with substrate ENLWFQS
D27K	0.0662	0.0731	0.0592	0.103	0.0811	0.0697	0.0651	0.0515	0.0562	0.0725	0.072	–	–	–	–	–	–	–	–
D27Q	0.0724	0.0451	0.0408	0.0727	0.0709	0.0655	0.0597	0.0407	0.0675	0.0729	0.0644	0.06	0.0645	0.0711	0.0583	–	–	–	–
D11Q	0.0855	–	0.0625	0.0787	0.07	0.114	0.0607	0.0524	–	0.0727	0.0627	0.0364	0.0696	0.0781	–	0.0511	0.0727	0.0769	0.0652
L33P	0.0545	0.0498	0.0539	0.0486	0.046	0.048	0.0447	0.0479	0.0459	–	0.0606	–	0.0577	0.0496	–	0.037	0.0514	0.0515	0.0431
G28C	0.0545	0.0634	0.0568	0.0869	0.0666	0.0702	–	0.0576	0.0595	0.0511	–	0.076	0.0582	–	–	0.0568	0.0615	–	–
Y12W	0.061	–	0.0703	0.086	0.0727	0.0683	0.0732	0.0514	0.0782	0.0707	0.0544	–	0.0792	0.0715	–	–	–	–	0.0788
Y12S	0.0701	–	0.0587	0.0777	–	0.0707	0.0647	0.0674	–	–	0.0759	–	0.0877	0.116	0.0696	0.0708	0.0776	–	0.0748
Y12K	0.0652	0.0688	0.0649	0.0851	0.0895	0.0729	0.0704	0.062	–	–	0.0668	–	0.0619	0.0583	–	0.0714	0.0646	0.0632	0.0658
Y12H	0.0652	0.103	0.0627	0.0825	0.0825	0.077	0.0064	0.063	0.0729	0.0805	0.0629	–	0.0668	–	–	0.059	0.0663	0.084	0.0574
I15S	0.0596	0.0677	0.0645	0.0866	0.0701	0.0626	0.0398	0.0645	0.0648	0.0644	0.0531	0.0609	0.0562	0.0509	0.0584	0.0432	0.0743	0.0689	–
I15C	0.0659	0.0277	0.0541	0.0626	0.0629	0.068	0.0698	0.0589	0.0635	0.0631	0.0618	0.0552	0.0682	0.061	–	0.0662	–	–	0.0633
L22K	0.0529	–	0.0508	0.0437	0.0504	0.0657	0.0477	–	0.0509	0.0367	0.0467	–	0.0334	0.052	–	0.0566	0.0515	–	0.0463
L22V	0.051	0.0713	0.0651	0.0721	–	0.0741	0.0411	–	0.0412	0.0718	0.0609	0.0637	0.0649	0.0673	0.0627	0.0646	0.07	0.0682	0.0712
I36A	0.0527	0.0461	0.0599	0.0592	0.0652	0.0496	0.0569	0.0536	0.0561	0.055	0.0604	–	0.0587	0.0514	–	0.0606	0.0309	0.0569	–
I36R	0.0483	0.046	0.0416	0.0491	0.0443	0.0491	0.0421	0.0458	0.0567	0.0461	0.0381	–	0.0458	0.0519	–	0.0502	–	–	0.0442
I36E	0.0522	0.0527	0.0501	0.045	–	0.0459	0.0508	0.0451	0.0525	0.0345	0.0544	0.0462	0.0493	0.0626	–	0.0484	0.0756	0.0415	0.0424
T31P	0.0464	–	0.0637	0.0351	–	0.0537	0.0547	0.038	0.045	–	0.0757	0.0868	0.0598	0.0651	–	0.0584	–	0.0643	–
T31F	0.0573	0.058	0.0699	0.0899	0.0728	0.0878	0.0665	0.0619	0.0695	0.0662	0.0675	0.0688	0.0654	0.0729	0.0545	0.0652	–	0.0951	0.0672
T30W	0.0697	–	0.0469	0.0835	0.0268	0.0655	0.0616	0.0479	0.0854	0.0676	0.0655	–	0.0966	0.0822	–	0.0868	0.0726	–	0.0795
H29D	0.0646	0.0692	0.0546	0.094	–	0.0781	0.0745	0.056	0.0714	–	0.0802	0.0214	0.0527	–	–	0.0816	0.086	0.0781	0.0686
H29R	0.069	–	0.0633	0.08	–	0.0816	0.065	0.08	0.0685	0.0821	0.0609	0.0618	–	–	–	0.0721	–	–	0.0643
H29E	0.0718	–	0.0524	–	0.113	0.0878	0.0596	0.0663	–	–	0.0726	–	0.0649	0.0737	–	0.0836	–	0.0895	–
H29A	0.0652	0.0779	0.0565	0.0656	–	0.066	0.0596	0.0621	0.0902	0.0774	0.0569	–	0.0703	0.0857	–	0.052	0.0685	0.0836	0.083
